Data published in US20170349643A1 (Five Prime, published 2017).

B1: FGFR1-IIIc-Fc fusion protein (Fc fusion)
chain: RPSPTLPEQAQPWGAPVEVESFLVHPGDLLQLRCRLRDDVQSINWLRDGVQLAESNRTRITGEEVEVQDSVPADSGLYACVTSSPSGSDTTYFSVNVSDALPSSEDDDDDDDSSSEEKETDNTKPNPVAPYWTSPEKMEKKLHAVPAAKTVKFKCPSSGTPNPTLRWLKNGKEFKPDHRIGGYKVRYATWSIIMDSVVPSDKGNYTCIVENEYGSINHTYQLDVVERSPHRPILQAGLPANKTVALGSNVEFMCKVYSDPQPHIQWLKHIEVNGSKIGPDNLPYVQILKTAGVNTTDKEMEVLHLRNVSFEDAGEYTCLAGNSIGLSHHSAWLTVLEALEERPAVMTSPLYLEGS[in this place human IgG1 Fc with changes]
notes: also called parental FGFR1-IIIc-Fc; FGFR-IIIc-Fc
B2: R1Mut4 (Fc fusion)
chain: RPSPTLPEQAQPWGAPVEVESFLVHPGDLLQLRCRLRDDVQSINWLRDGVQLAESNRTRITGEEVEVQDSVPADSGLYACVTSSPSGSDTTYFSVNVSDALPSSEDDDDDDDSSSEEKETDNTKPNPVAPYWTSPEKMEKKLHAVPAAKTVKFKCPSSGTPNPTLRWLKNGKEFKPDHRIGGYKVRYATWSIIMDSVVPSDKGNYTCIVENEYGSINHTYQLDVVERSPHRPILQAGLPANKTVALGSNVEFMCKVYSDPQPHIQWLKHIEVNGSKIGPDNLPYVQILKTAGVNTTDKEMEVLHLRNVSFEDAGEYTCLAGNSIGLSHHSAWLTVLEAL[in this place human IgG1 Fc with changes]
notes: Truncated ECD ending LEAL before the Fc; also called R1Mut4 fusion protein; HG1020129
B3: FGFR4-Fc fusion protein (Fc fusion)
chain: not shown
notes: also called parental FGFR4-Fc; HG1020185
B4: FGFR3-IIIc-Fc fusion protein (Fc fusion)
chain: ESLGTEQRVVGRAAEVPGPEPGQQEQLVFGSGDAVELSCPPPGGGPMGPTVWVKDGTGLVPSERVLVGPQRLQVLNASHEDSGAYSCRQRLTQRVLCHFSVRVTDAPSSGDDEDGEDEAEDTGVDTGAPYWTRPERMDKKLLAVPAANTVRFRCPAAGNPTPSISWLKNGREFRGEHRIGGIKLRHQQWSLVMESVVPSDRGNYTCVVENKFGSIRQTYTLDVLERSPHRPILQAGLPANQTAVLGSDVEFHCKVYSDAQPHIQWLKHVEVNGSKVGPDGTPYVTVLKTAGANTTDKELEVLSLHNVTFEDAGEYTCLAGNSIGFSHHSAWLVVLPAEEELVEADEAGSVYAGGS[in this place human IgG1 Fc with changes]
notes: also called HG1021603

How the values were obtained:
recombinant human FGF-2 [1] = biological target: T1, recombinant human FGF-2 (human, UniProt P09038 part only); assay: competition ELISA, 293-6E-made fusion pre-incubated with 200 ng/ml FGF-2, plate FGFR1-IIIc-Fc
T1 construct: Bought protein
Protocol: (§1) The wells were blocked by adding 150 ul BLOTTO per well and incubating for 2 hr at room temperature. The coated half-well plates were then washed six times with PBS and 0.05% Tween-20 to remove unbound FGFR1-IIIc-Fc and BLOTTO.
About 40 ul of the above fusion proteins pre-incubated with FGF-2 were then added to the washed half-well plates coated with FGFR1-IIIc-Fc and incubated for 30 min at 37° C. with shaking. After incubation, the plates were washed as before six times with PBS and 0.05% Tween-20 to remove any unbound FGF-2. After washing, about 2 ug/ml of anti-human FGF-2 polyclonal biotinylated antibody (from R&D Systems) in 1x BLOTTO was added to each well of the plate, which was then incubated for 30 min at 37° C. with shaking, followed by washing as before to remove any unbound anti-FGF-2 antibody. The bound anti-FGF-2 antibody was detected using a streptavidin-HRP linker provided in the ABC kit (Vector Laboratories, Burlingame, Calif.) according to the manufacturer's protocol. After washing as before, reconstituted OPD solution (Sigma; St. Louis, Mo.) was added. The detection reaction was developed for 10 to 20 min at room temperature followed by a reading of absorbance at 450 nm.

[2] = biological target: T2, FGF-18 (recombinant mouse) (mouse, UniProt O89101 28-207, limits assumed); assay: SPR Biacore; fusion on Protein-A chip, FGF analyte, heparin; average of two
T2 construct: Bought protein
T2 sequence (looked up): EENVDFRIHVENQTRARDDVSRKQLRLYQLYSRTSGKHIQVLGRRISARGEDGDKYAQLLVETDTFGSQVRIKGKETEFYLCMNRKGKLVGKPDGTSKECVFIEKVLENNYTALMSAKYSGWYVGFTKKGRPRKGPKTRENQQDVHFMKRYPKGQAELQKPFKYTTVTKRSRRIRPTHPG
Protocol: (§2) The specificity of FGF ligand binding to FGFR1-IIIc-Fc, R1Mut4, FGFR3-IIIc-Fc, and FGFR4-Fc was assessed using Biacore®T100 surface plasmon resonance (SPR) technology (Biacore; Piscataway, N.J.). FGFR1-IIIc-Fc, R1Mut4, and FGFR4-Fc fusion proteins were produced from CHO—S host cells as described in Examples 2, 4, and 5. […] Protein-A was covalently linked to a CM5 chip, according to manufacturer's instructions and then a FGFR fusion protein was bound to the chip by the interaction of the Fc domain with the Protein-A. The FGF ligands were placed in contact with the FGFR fusion protein, also according to manufacturer's instructions, in the presence of HBS-P buffer (Biacore; Piscataway, N.J.) supplemented with 50 ug/ml heparin (Sigma; St. Louis, Mo.).
(§3) The binding of FGFR1-IIIc-Fc, R1Mut4, FGFR3-IIIc-Fc, and FGFR4-Fc to various FGF ligands was measured in real time.

recombinant mouse FGF-8b [3] = biological target: T3, recombinant mouse FGF-8b (mouse, UniProt P37237-2 23-215); assay: competition ELISA (FIG. 9), DG44-made fusion, plate FGFR1-IIIc-Fc
T3 sequence (looked up): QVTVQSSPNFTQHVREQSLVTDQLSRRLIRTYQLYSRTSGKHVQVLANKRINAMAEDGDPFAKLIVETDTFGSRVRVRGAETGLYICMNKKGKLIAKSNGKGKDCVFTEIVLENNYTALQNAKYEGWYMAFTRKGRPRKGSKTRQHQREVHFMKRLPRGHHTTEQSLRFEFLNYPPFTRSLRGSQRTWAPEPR
Protocol: Similar competition ELISA experiments were conducted comparing the ability of the FGFR1-IIIc-Fc fusion protein and R1Mut4 fusion protein, both produced in DG44 host cells, to inhibit the binding of recombinant human FGF-1 (at a concentration of 60 ng/ml), recombinant human FGF-2 (a concentration of at 200 ng/ml), and recombinant mouse FGF-8b (a concentration of at 200 ng/ml) (all from R&D Systems; Minneapolis, Minn.) to FGFR1-IIIc-Fc derived from 293 cells and immobilized on an assay plate.

FGF-20 = biological target: T4, FGF-20 (human, UniProt Q9NP95 1-211, limits assumed); assay: SPR Biacore; fusion on Protein-A chip, FGF analyte, heparin
T4 construct: Bought protein
Protocol: as §2, §3

recombinant human FGF-2 [4] = biological target: T1, recombinant human FGF-2; assay: as above
Protocol: as §2, §3

FGF-5 = biological target: T5, FGF-5 (human, UniProt P12034 23-268, limits assumed); assay: as above
T5 construct: Bought protein
T5 sequence (looked up): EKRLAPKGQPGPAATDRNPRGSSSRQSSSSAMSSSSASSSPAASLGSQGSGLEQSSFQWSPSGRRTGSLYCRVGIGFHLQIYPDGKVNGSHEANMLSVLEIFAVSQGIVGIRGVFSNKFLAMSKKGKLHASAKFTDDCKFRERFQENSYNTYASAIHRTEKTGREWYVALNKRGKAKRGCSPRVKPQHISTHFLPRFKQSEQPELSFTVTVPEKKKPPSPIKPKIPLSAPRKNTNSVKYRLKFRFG
Protocol: as §2, §3

FGF-4 = biological target: T6, FGF-4 (human, UniProt P08620 54-206, limits assumed); assay: as above
T6 construct: Bought protein
T6 sequence (looked up): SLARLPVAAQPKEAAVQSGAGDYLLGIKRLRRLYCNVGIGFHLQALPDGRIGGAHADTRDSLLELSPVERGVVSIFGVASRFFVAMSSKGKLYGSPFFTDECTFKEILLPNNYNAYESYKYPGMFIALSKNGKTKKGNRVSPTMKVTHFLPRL
Protocol: as §2, §3

FGF-9 = FGF-9 (human, UniProt P31371); assay: as above
Protocol: as §2, §3

FGF-19 = biological target: T7, FGF-19 (human, UniProt O95750); assay: as above
T7 construct: Bought protein
Protocol: as §2, §3

recombinant human FGF-2 [5] = biological target: T1, recombinant human FGF-2; assay: cell-based or functional assay
recombinant human FGF-1 [6] = biological target: T8, recombinant human FGF-1 (human, UniProt P05230); assay: SPR Biacore; fusion on Protein-A chip, FGF analyte, heparin; average of two
T8 construct: Bought protein
Protocol: as §2, §3

recombinant human FGF-1 [7] = biological target: T8, recombinant human FGF-1; assay: SPR Biacore; fusion on Protein-A chip, FGF analyte, heparin
Protocol: as §2, §3

recombinant mouse FGF-8b [8] = biological target: T3, recombinant mouse FGF-8b; assay: competition ELISA, fusion pre-incubated with 200 ng/ml FGF-8b, plate FGFR4-Fc
Protocol: as §1, with “Briefly, HI BIND half-wells were coated with FGFR4-Fc of CHO—S-origin at a concentration of 5 ug/ml in PBS in a volume of 25 ul per well for 1 hr at room temperature. The wells” for “The wells”
Similar competition ELISA experiments were conducted comparing the ability of the FGFR4-Fc fusion protein and the FGFR4-Fc deletion variants, produced in CHO—S host cells, to inhibit the binding of recombinant human FGF-2 (used at 200 ng/ml) and recombinant mouse FGF-8b (used at 200 ng/ml) (all from R&D Systems; Minneapolis, Minn.) to FGFR4-Fc derived from CHO—S cells and immobilized on an assay plate.

FGF-7 = biological target: T9, FGF-7 (human, UniProt P21781 32-194); assay: SPR Biacore; fusion on Protein-A chip, FGF analyte, heparin
T9 construct: Bought protein
T9 sequence (looked up): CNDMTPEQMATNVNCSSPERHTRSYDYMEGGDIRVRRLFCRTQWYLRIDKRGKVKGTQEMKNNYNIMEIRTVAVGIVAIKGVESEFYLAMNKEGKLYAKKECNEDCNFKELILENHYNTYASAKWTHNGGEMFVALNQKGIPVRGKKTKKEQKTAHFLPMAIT
Protocol: as §2, §3

recombinant mouse FGF-8b [9] = biological target: T3, recombinant mouse FGF-8b; assay: competition ELISA (FIG. 12), 293-6E-made fusion

T8 sequence (P05230 16-155 limits assumed): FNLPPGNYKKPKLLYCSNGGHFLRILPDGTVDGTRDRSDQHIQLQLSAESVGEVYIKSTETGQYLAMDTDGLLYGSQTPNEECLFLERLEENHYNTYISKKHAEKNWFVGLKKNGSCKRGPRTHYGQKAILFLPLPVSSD
Chain of FGF-20 (Q9NP95 whole entry, the tested form may be a part): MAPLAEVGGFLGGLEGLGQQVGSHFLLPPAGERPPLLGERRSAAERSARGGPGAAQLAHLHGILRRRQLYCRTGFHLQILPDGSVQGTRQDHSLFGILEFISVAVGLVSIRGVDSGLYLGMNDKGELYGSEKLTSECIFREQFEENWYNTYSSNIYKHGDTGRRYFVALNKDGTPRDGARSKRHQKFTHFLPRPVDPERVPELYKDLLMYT
T1 sequence (P09038 143-288 limits assumed): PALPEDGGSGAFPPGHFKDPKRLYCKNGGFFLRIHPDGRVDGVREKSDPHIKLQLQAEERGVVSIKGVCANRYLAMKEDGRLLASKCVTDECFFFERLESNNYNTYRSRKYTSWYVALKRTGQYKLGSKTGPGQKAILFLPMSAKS
Chain of FGF-19 (O95750 25-216 limits assumed): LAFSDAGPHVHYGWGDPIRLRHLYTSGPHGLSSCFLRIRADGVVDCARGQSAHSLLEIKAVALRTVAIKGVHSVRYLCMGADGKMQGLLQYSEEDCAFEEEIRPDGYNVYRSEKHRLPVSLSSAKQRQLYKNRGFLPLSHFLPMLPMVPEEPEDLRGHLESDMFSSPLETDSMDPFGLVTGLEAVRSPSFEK

Binder	Kd [2] [nM]	kon [2] [M⁻¹ s⁻¹]	binding result (recombinant mouse FGF-8b [3])	Kd (FGF-20) [nM]	kon (FGF-20) [M⁻¹ s⁻¹]	Kd (recombinant human FGF-2 [4]) [nM]	kon (recombinant human FGF-2 [4]) [M⁻¹ s⁻¹]	Kd (FGF-5) [nM]	kon (FGF-5) [M⁻¹ s⁻¹]	Kd (FGF-4) [nM]	kon (FGF-4) [M⁻¹ s⁻¹]	Kd (FGF-9) [nM]	kon (FGF-9) [M⁻¹ s⁻¹]	Kd (FGF-19) [nM]	inhibition of FGF-2 activated Erk phosphorylation (phospho-Erk ELISA), EC50, 293-6E protein (recombinant human FGF-2 [5]) [µg/mL]	Kd (recombinant human FGF-1 [6]) [nM]	kon (recombinant human FGF-1 [6]) [M⁻¹ s⁻¹]	further results
B1	0.418	1.11e+06	binds	1.57	162000	0.617	375000	4.58	171000	0.667	715000	1.12	474000	7870	0.18			EC50 (recombinant human FGF-2 [1]): ~0.24 µg/mL; kon (FGF-19): 56300 M⁻¹ s⁻¹; inhibition of FGF-2 activated Erk phosphorylation (phospho-Erk ELISA, L6 cells transfected with FGFR1-IIIc), EC50, 293 cells-derived protein (recombinant human FGF-2 [5]): 0.23 µg/mL; inhibition of FGF-2 activated Erk phosphorylation (phospho-Erk ELISA, L6 cells transfected with FGFR1-IIIc), EC50, CHO cells-derived protein (recombinant human FGF-2 [5]): 0.29 µg/mL
B2	0.275	1.06e+06	binds	0.785	242000	0.438	412000	2.95	371000	0.214	1.06e+06	0.919	566000		0.29	0.0507	3.46e+06	
B3						16.2	41600											Kd (recombinant human FGF-1 [7]): 3.45 nM; kon (recombinant human FGF-1 [7]): 168000 M⁻¹ s⁻¹; EC50 (recombinant mouse FGF-8b [8]): ~0.631 µg/mL
B4	0.035	5.16e+06		2.17	185000			9.7		1.91	808000	0.537	776000	7870		0.126	2.83e+06	Kd (FGF-7): 148 nM; kon (FGF-7): 319000 M⁻¹ s⁻¹; binding result (recombinant mouse FGF-8b [9]): binds
